Reference: PMC9911399, “Two distinct binding modes provide the RNA-binding protein RbFox with extraordinary sequence specificity”
Substitutions are numbered along the chain they refer to; changes in the protein carry UniProt numbers. The list shows a part of the results.

T1: RBFOX1 RRM (Homo sapiens, UniProt Q9NWB1 109-208)
T1 sequence: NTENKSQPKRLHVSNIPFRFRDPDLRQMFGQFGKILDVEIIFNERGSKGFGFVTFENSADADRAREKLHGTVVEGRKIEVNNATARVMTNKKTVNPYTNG

B1: CUAUCGG (DNA:RNA)
RNA: GGGAGACCGGAAUUCAGAUUGUCCCUAUCGGUUAAAUCCCGUCGUAGCCACCA
DNA 1: CAATCTGAATTCCGGTCTCCC
DNA 2: TGGTGGCTACGACGGGATT
B2: UCAGACC (DNA:RNA)
RNA: B1 RNA with C25U, U26C, U28G, C29A, G30C, G31C
DNA 1: CAATCTGAATTCCGGTCTCCC
DNA 2: TGGTGGCTACGACGGGATT
B3: AUGUACG (DNA:RNA)
RNA: B1 RNA with C25A, A27G, C29A, G30C
DNA 1: CAATCTGAATTCCGGTCTCCC
DNA 2: TGGTGGCTACGACGGGATT
B4: AAGCUAC (DNA:RNA)
RNA: GGGAGACCGGAAUUCAGAUUGUCCAAGCUACUUAAAUCCCGUCGUAGCCACCA
DNA 1: CAATCTGAATTCCGGTCTCCC
DNA 2: TGGTGGCTACGACGGGATT
B5: AUCGGAG (DNA:RNA)
RNA: B4 RNA with A26U, G27C, C28G, U29G, C31G
DNA 1: CAATCTGAATTCCGGTCTCCC
DNA 2: TGGTGGCTACGACGGGATT
B6: CACAAAU (DNA:RNA)
RNA: B4 RNA with A25C, G27C, C28A, U29A, C31U
DNA 1: CAATCTGAATTCCGGTCTCCC
DNA 2: TGGTGGCTACGACGGGATT
B7: GGAGCGU (DNA:RNA)
RNA: B1 RNA with C25G, U26G, U28G, G31U
DNA 1: CAATCTGAATTCCGGTCTCCC
DNA 2: TGGTGGCTACGACGGGATT
B8: AACAGGC (DNA:RNA)
RNA: B4 RNA with G27C, C28A, U29G, A30G
DNA 1: CAATCTGAATTCCGGTCTCCC
DNA 2: TGGTGGCTACGACGGGATT
B9: AAGUAUC (DNA:RNA)
RNA: B4 RNA with C28U, U29A, A30U
DNA 1: CAATCTGAATTCCGGTCTCCC
DNA 2: TGGTGGCTACGACGGGATT

The binders below were run against T1, RBFOX1 RRM (assay: EMSA; HiTS-Eq, 1 nM pool, 10 min; buffer printed only for the single-RNA assays: 10 mM Tris pH 7.5, 150 mM NaCl, 3.4 mM EDTA, 0.001% NP-40, 30 C). Settings: tags: His6 N-terminal (pET28a); label: 5' 32P.
How it was run: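 Purified wild-type or mutant RbFox RRM at increasing concentrations was equilibrated with 1 nM of 5′-radiolabelled RNA carrying 7 randomized nucleotides for 10 min in 50 µL. Unbound RNA was separated by 8% native PAGE and sequenced. Relative association constants came from read-count changes of each RNA species compared with the control reaction, normalised to the cognate motif.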
B1 was tested, and the binding signal was 0.00622 KA relative to UGCAUGU. B2 was tested, and the binding signal was 0.00454 KA relative to UGCAUGU. For B3, the binding signal was 0.00949 KA relative to UGCAUGU. In the case of B4, the binding signal is reported as 0.00816 KA relative to UGCAUGU. B5 was tested, and the binding signal was 0.00272 KA relative to UGCAUGU. In the case of B6, the binding signal is reported as 0.000307 KA relative to UGCAUGU. For B7, the binding signal was 0.0147 KA relative to UGCAUGU. B8 was tested, and the binding signal was 0.00461 KA relative to UGCAUGU. With B9 the binding signal was 0.00804 KA relative to UGCAUGU.
